# PubChem BioAssay AID1346428 (National Center for Advancing Translational Sciences (NCATS), 2018)
# Where “and” joins values, the source holds several entries; their conditions need not be identical. Equal entries are not always repeated. The campaign covered roughly 48,000 compounds. About 1,200 (2.5%) were called active. Another 2% or so got no clear call; they are omitted.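 How the source made its calls: active means activation of at least 60% and not above a set upper limit (about 1 call in 100 departs from these limits); inconclusive means activation of 40% to 60%, or above that upper limit; inactive means activation under 40%.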 This is one part of the list. The source holds several records for some structures; these can differ, active in one and inactive in another.
# Target: Probable G-protein coupled receptor 32 (Homo sapiens) (UniProt O75388)
# Test: qHTS for Agonists of Human Resolvin D1 Receptor DRV1
# Details: CHO-K1 GPR32 beta-arrestin PathHunter luminescence, 90 min; at 76.9 µM; stronger effect = higher value; zero percent set by DMSO-only wells
# Description: Endogenous resolution of inflammation is known to be transduced through various GPCRs and their natural mediators of lipid nature. Resolvin D1 (RvD1) is one of the active players in resolution of acute inflammation through regulation of anti-inflammatory pathways; it is known to enhance phagocytosis of human macrophages, limits neutrophils infiltration, etc. […] The search for GPR32-activating small molecules with anti-inflammatory effects similar to its natural omega-3 derivative ligand in order to use them as research tools for further studies of inflammation and its resolution was the goal of this screening project. For primary screening assay, we used CHO-K1 GPR32 beta-arrestin cell line (DiscoveRx, #93-0321C2A) and the PathHunter(R) beta-Arrestin Assay (DiscoveRx) which measures recruitment of beta-arrestin to the GPR32 and generates chemiluminescent signal. These engineered cells stably transfected with GPR32 co-express GPR32-fused small 42-amino acid fragment of beta-Gal called ProLinktrade mark, and […] -tagged beta-Arrestin fusion protein. When GPR32 is activated by a ligand, it stimulates binding of beta -Arrestin to ProLink-tagged GPR32, and two parts of beta-Gal complement forming a functional enzyme. Upon substrate (PathHunter(R) Detection reagent) addition, beta-Gal hydrolyzes it and generates a chemiluminescent signal.
# The cells were thawed and plated in thawing media containing F-12 HAM (Invitrogen, #11765-054), 10% FBS (Invitrogen, #10082), 1x Glutamine, and 1x Pen/Strep onto the 175-mm flask for 24 hours. Then, thawing media was replaced with Growth media which contains 800microg/mL Geneticin (Invitrogen, #10131) and 300microg/mL Hygromycin B (Invitrogen, #10687) in addition to described above. For the assay, the cells were harvested at ~80% confluent stage with Cell Dissociation buffer (Gibco, #13151), and seeded at 2,500 cells/ 3microL/well in assay media (PathHunter(R) Cell Plating Reagent, DiscoverX, #93-0563R1B) using MultiDrop Combi dispenser (Thermo Scientific, Logan, UT) onto white solid bottom tissue culture-treated 1536-well plates (Greiner # 789173-F) and allowed to attach overnight at 37 degrees C, 95% humidity, 5% CO2, . Next, 23nL/well of compound solutions in DMSO were added with a Pin Tool (Kalypsis, San Diego, CA) to the assay plates. As the basal control (EC0), 23 nL/well of DMSO was used on each plate. The cells were incubated in the presence of compounds or DMSO for 90 minutes at 37 degrees C, 5% CO2. Subsequently, 1.5microL/well of PathHunter(R) Detection Reagent prepared per the manufacturer's instructions was added to the assay plates with BioRAPTR FRDtrade mark dispenser (Beckman Coulter, San Francisco, CA) and incubated for 1 hour at ambient temperature prior to the measurement of the luminescent signal on ViewLux(R) uHTS Microplate Imager (Perkin Elmer, Waltham, MA).
# Chain of UniProt O75388 (O75388 whole entry, looked up): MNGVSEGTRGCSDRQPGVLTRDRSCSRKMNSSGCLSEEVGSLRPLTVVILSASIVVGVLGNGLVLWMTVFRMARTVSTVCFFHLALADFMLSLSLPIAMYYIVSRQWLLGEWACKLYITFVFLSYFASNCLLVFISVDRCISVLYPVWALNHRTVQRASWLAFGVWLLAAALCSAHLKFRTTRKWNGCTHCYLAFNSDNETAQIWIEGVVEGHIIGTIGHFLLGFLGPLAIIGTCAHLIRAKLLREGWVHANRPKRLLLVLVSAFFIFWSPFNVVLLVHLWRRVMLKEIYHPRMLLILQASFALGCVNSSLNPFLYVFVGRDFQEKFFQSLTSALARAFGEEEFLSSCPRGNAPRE
row,Structure (SMILES),activation
1,Cc1cccc(C(=O)Nc2nnc(S(=O)(=O)N3CCC(C)CC3)s2)c1,active: 68.5%
2,CCOC(=O)CC(NC(=O)c1cc2cc(OC)ccc2oc1=O)c1ccc(OC)cc1 (stereo not given),inactive: 6.64%
3,Cc1cccc(OCC(=O)OCc2cc(=O)n3nc(C4CC4)sc3n2)c1,inactive: 21.6%
4,O=C(NCc1ccccc1)c1cccc(Nc2nc3ccccc3n3nnnc23)c1,inactive: 25.5%
5,CCCC1(C)C(C#N)(C#N)C1(C#N)C#N,inactive: -28.1%
6,CCOc1ccc(CNC(=O)CCS(=O)(=O)c2cc3c4c(c2)CCN4C(=O)CC3)cc1,inactive: -8.22%
7,O=C(C1CCN(S(=O)(=O)c2cccc3nonc23)CC1)N1CCN(c2ccc(F)cc2)CC1,inactive: 4.35%
8,CC1CCN(C(=O)CN2CCSc3ccc(S(=O)(=O)N(C)C)cc32)CC1,inactive: -5.25%
9,CCOC(=O)c1c(C)oc2ncnc(Nc3ccc(CC)cc3)c12,inactive: 5.36%
10,CCC(=O)N1CCc2cc(S(=O)(=O)NCCC(=O)NC(C)c3ccccc3)ccc21 (stereo not given),inactive: 7.49%
11,COc1ccc(/C=C/c2nc(-c3ccccc3O)n(-c3ccccc3)n2)cc1OC,inactive: -12.2%
12,CN(C)CCCN1c2ccccc2Sc2ccc(Cl)cc21,active: 63% and inactive: -19.2%
13,CC(=O)c1ccc(NC(=O)C(Cc2ccccc2)NS(=O)(=O)c2ccc3c(c2)CCC(=O)N3)cc1 (stereo not given),inactive: 10.3%
14,CCCCOc1ccc(NC(=O)CSc2ccc(C(=O)O)cn2)cc1,inactive: 0.0116%
15,COc1ccc(NC(=O)CCc2nc3cccnc3n2Cc2cccs2)c(OC)c1,inactive: -11.2%
16,CCOC(=O)c1ccc(NC(=O)Nc2cccc(OCc3cc(=O)n4ccc(C)cc4n3)c2)cc1,inactive: -14.1%
17,Cc1cc(N2CCN(c3ccccc3F)CC2)n2cnnc2n1,inactive: -6.22%
18,CCCSc1ncc(Cl)c(C(=O)Nc2ccc(OC)cc2OC)n1,inactive: -11.4%
19,O=C(NCc1ccc(F)cc1)c1ccc2c(c1)N(Cc1ccc(F)cc1Cl)C(=O)CS2,inactive: 48.1%
20,CC(C)CCSc1nc2c(c(=O)n(C)c(=O)n2C)n1Cc1ccccc1Cl,inactive: -8.58%
21,COc1cccc(CNC(=O)CCn2ccc3cc(S(=O)(=O)N4CCCC4)ccc32)c1,inactive: -4.61%
22,Cc1ccc(CN2C(=O)SC(Nc3ccccc3)C2=O)cc1 (stereo not given),inactive: -86%

row,Structure (SMILES),activation
1,O=C(NCCn1cc(SCc2ccc(C(F)(F)F)cc2)c2ccccc21)c1ccccc1F,inactive: -8.06%
2,CCn1cnc2c(=O)oc3ccc(S(=O)(=O)N4CCN(c5cc(C)ccc5C)CC4)cc3c21,inactive: 11.8%
3,COc1ccc(NC(=O)Nc2nnc(SCC(=O)Nc3cccc(C)c3C)s2)cc1,inactive: -7.96%
4,Cc1ccc(C2C=C(c3ccc(Cl)cc3)Nc3nc(NC(=O)CCC(=O)O)nn32)cc1 (stereo not given),inactive: 33.6%
5,CCOc1ccc(NC(=O)CCn2c(-c3ccc(F)cc3)cc(C(C)=O)c2C)cc1,inactive: -20.9%
6,COc1ccc(C2=C(C)C(=O)N(Cc3ccc(C(=O)NCc4ccccc4C)cc3)S2(=O)=O)cc1,inactive: -5.78%
7,O=S(=O)(NCCc1ccc(Cl)cc1)c1ccc(N2CCCCS2(=O)=O)cc1,inactive: 15%
8,COc1ccccc1OCCCn1c(-c2ccc(Cl)cc2)nc2ccccc2c1=O,inactive: -12.7%
9,O=C(CSc1nnc(-c2ccccc2)c(-c2ccccc2)n1)Nc1ccccc1Cl,inactive: -21.1%
10,CCCOc1ccc(C(=O)Nc2cc3nn(-c4ccc(CC)cc4)nc3cc2C)cc1,inactive: -0.127%
11,CCC(C)Cn1c(COc2ccc(OC)cc2)nc2ccccc21 (stereo not given),inactive: -16.2%
12,Cc1ccc(Cl)cc1N1CCN(C(=O)c2cc(S(=O)(=O)N3CCC(C)CC3)cn2C)CC1,inactive: -4.63%
13,CC(=O)Nc1ccc(NC(=O)CC2Sc3ccccc3NC2=O)cc1 (stereo not given),inactive: -6.68%
14,Cc1c(CNCc2ccc(Cl)cc2)c(C(=O)O)c(C)n1Cc1ccc(F)cc1,inactive: -2.77%
15,COc1ccc(NC(=O)CSc2nc3nc(C)cc(C)n3n2)cc1,inactive: -1.61%
16,CCOc1ccc(CNC(=O)C2CCN(S(=O)(=O)c3c(C)noc3/C=C/c3ccc(C)cc3)CC2)cc1OC,inactive: -3.67%
17,COc1ccc(NC(=O)Cn2c(CCC(=O)O)ccc2-c2ccccc2)cc1Cl,inactive: -24.6%
18,CCCN(CCC)CCCNC(=O)C1CCC(CNS(=O)(=O)c2ccc(NC(C)=O)cc2)CC1 (stereo not given),inactive: -13.1%
19,COc1cccc(CNC(=O)CCc2nnc3n(C)c(=O)c4sccc4n23)c1,inactive: -7.63%
20,CCOC(=O)c1c(C)oc2nc(C)nc(Nc3cccc(OC)c3)c12,inactive: -6.64%
21,CCOC(=O)Cc1ccc(NC(=O)n2ncc3c(C)cccc32)cc1,inactive: 44.5%
22,CCOc1ccc(CC(=O)Nc2c(C(=O)c3ccc(F)cc3)oc3ccccc23)cc1OCC,inactive: 31.5%

row,Structure (SMILES),activation
1,Nc1ccc(S(=O)(=O)Nc2ccccn2)cc1,inactive: -0.55%
2,CCC(O)c1nc2ccccc2n1Cc1cccc(Cl)c1 (stereo not given),inactive: -14.3%
3,COc1ccc(C(CNC(=O)COc2ccc(C)c(C)c2)N2CCCCC2)cc1 (stereo not given),inactive: -12.5%
4,Cc1ccccc1CSc1cn(CCNC(=O)c2cccs2)c2ccccc12,inactive: 24.6%
5,CC(=O)NCCNC(=O)CCCc1nnc2n(CCC(C)C)c(=O)c3sccc3n12,inactive: -11.2%
6,CCOc1ccc(-n2c(Cc3ccccc3)nnc2SCc2nc(-c3ccccc3C)no2)cc1,inactive: -27.7%
7,CCOC(=O)c1c(C)[nH]c(CCC(=O)NCCCN2CCN(c3cccc(Cl)c3)CC2)c1C,inactive: 3.48%
8,CCn1c(CN2CCC(C)CC2)nc2cc(NC(=O)c3ccccc3[N+](=O)[O-])ccc21,inactive: -17.3%
9,Cc1ccc(C)c(Cn2c(=O)c3c(nc4n3CCN4c3ccc(F)cc3)n(C)c2=O)c1,inactive: 4.02%
10,CCc1ccc(OC(=O)CSc2nnc(-c3ccc4c(c3)OCO4)o2)cc1,inactive: -6.11%
11,Cc1ccc(NC(=O)C(=O)NCC(c2cccnc2)N2CCOCC2)cc1C (stereo not given),inactive: 23.5%
12,CCS(=O)(=O)N1CCc2cc(C(=O)N3CCN(c4cccc(C(F)(F)F)c4)CC3)ccc21,active: 64.7%
13,Oc1cccc(C(Nc2ccccn2)c2ccc3cccnc3c2O)c1Cl (stereo not given),active: 81%
14,CCOCCCNC(=O)C(c1ccc(OC)cc1)N(Cc1cccs1)C(=O)c1ccc(NC(C)=O)cc1 (stereo not given),inactive: -4.55%
15,N[C@@H](Cc1ccc(O)c(I)c1)C(=O)O,inactive: -5.31%
16,Cc1ccc(C(=O)c2oc3ccccc3c2NC(=O)c2cc(=O)c3ccccc3o2)cc1,inactive: 3.41%
17,Fc1cccc(-c2nc(-c3ccncc3)no2)c1,inactive: -5.09%
18,COc1cccc(-c2cn3c(n2)sc2cc(C(=O)NCc4cccs4)ccc23)c1,inactive: -0.88%
19,COc1ccc(CNC(=O)Cn2ccc3cc(S(=O)(=O)N4CCCCCC4)ccc32)cc1OC,inactive: 12.5%
20,COc1ccc2oc(=O)cc(CN3CCN(C(=O)c4ccccc4F)CC3)c2c1,inactive: -3.84%
21,CCCc1noc(-c2ccc(N3CCCCC3)c([N+](=O)[O-])c2)n1,inactive: -6.72%
22,CN(C)S(=O)(=O)N(CC(=O)NCCSCc1ccccc1Cl)c1ccccc1,inactive: -12.6%

row,Structure (SMILES),activation
1,COc1cccc(-c2nc(SCC(=O)Nc3ccc4c(c3)OCO4)c(-c3ccccc3)[nH]2)c1,inactive: -23%
2,COc1cc(NC(=O)Cn2ncc3c(=O)oc4ccccc4c32)cc(OC)c1OC,inactive: 8.28%
3,CCc1ccc(S(=O)(=O)c2nnn3c2nc(NCCc2ccccc2)c2sccc23)cc1,inactive: -26%
4,Cc1nc2c(cnn2-c2ccccc2Cl)c(=O)n1-c1ccc(C(C)C)cc1,inactive: 18.7%
5,Cc1cccc(N2CCN(S(=O)(=O)c3cc(Br)cc4c3N(C(=O)C3CC3)CC4)CC2C)c1 (stereo not given),inactive: 7.18%
6,COc1ccc(CCn2cc3c(c2-c2ccccc2Br)c(=O)n(C)c(=O)n3C)cc1OC,inactive: 2.99%
7,CCOC(=O)c1cc(S(=O)(=O)Nc2ccc(OC)c(Cl)c2)[nH]n1,inactive: 6.48%
8,CCOC(=O)C1(C)C=C(Nc2ccc(C(N)=O)cc2)C(=O)N1c1ccccc1 (stereo not given),inactive: -7.2%
9,COc1ccc2c(Sc3ccccc3)c(C(=O)NCc3cccc(OC)c3OC)[nH]c2c1,inactive: -12.3%
10,CCOc1ccc(CCNC(=O)CCCc2nnc3n(CC(C)C)c(=O)c4sccc4n23)cc1,inactive: -18.7%
11,CC(C)OCCCn1c(SCc2cccc(Br)c2)nc2c(sc3ccccc32)c1=O,inactive: -2.92%
12,CN1C(=O)Cc2cc(S(=O)(=O)CCC(=O)Nc3cccc(C(F)(F)F)c3)ccc21,inactive: 3.22%
13,CC(=O)N1c2ccc(S(=O)(=O)NCC3CCC(C(=O)NCCC(C)C)CC3)cc2CC1C (stereo not given),inactive: -12.7%
14,Cc1ccc(OC(=O)c2cc(-c3ccccc3)nc3ccc(C)cc23)cc1,inactive: -1.98%
15,COCCNC(=O)c1ccc2c(c1)N(Cc1cccc(Cl)c1)C(=O)c1ccccc1S2(=O)=O,inactive: -32.3%
16,COc1ccccc1Oc1nc2c(c(=O)n(C)c(=O)n2C)n1Cc1cccc(Br)c1,inactive: -5.37%
17,CC(=O)Nc1ccc(S(=O)(=O)Nc2cccc(-c3ccc(N4CCC(C)CC4)nn3)c2)cc1,inactive: 0.251%
18,COCCCN1C(=O)N(c2ccccc2)C(=O)C1CC(=O)Nc1ccc(F)cc1 (stereo not given),inactive: -7.08%
19,Cc1cc(C)c(NC(=O)Cn2nc3c(cc2=O)CCCC3)c(C)c1,inactive: 0.105%
